Results taken from patent publication US5849695A, “Parathyroid hormone analogues useful for treatment of osteoporosis and disorders of calcium meatabolism in mammals” (The Regents of the University of California, priority 1993, dated 1998).
At least one peptide structure holds a part that was inferred or is arguable (an end, a ring closure or a residue). Where no end group is shown, it is not given here.

What was measured:
[1] = molecular target: T1, PTH receptor (Rattus norvegicus, UniProt P25961); assay type: cell-based; settings: intact rat (UMR-106) bone cell line
T1 construct: endogenous in cells; host or cells: UMR 106-H5 rat osteosarcoma cells
T1 sequence (P25961 27-591): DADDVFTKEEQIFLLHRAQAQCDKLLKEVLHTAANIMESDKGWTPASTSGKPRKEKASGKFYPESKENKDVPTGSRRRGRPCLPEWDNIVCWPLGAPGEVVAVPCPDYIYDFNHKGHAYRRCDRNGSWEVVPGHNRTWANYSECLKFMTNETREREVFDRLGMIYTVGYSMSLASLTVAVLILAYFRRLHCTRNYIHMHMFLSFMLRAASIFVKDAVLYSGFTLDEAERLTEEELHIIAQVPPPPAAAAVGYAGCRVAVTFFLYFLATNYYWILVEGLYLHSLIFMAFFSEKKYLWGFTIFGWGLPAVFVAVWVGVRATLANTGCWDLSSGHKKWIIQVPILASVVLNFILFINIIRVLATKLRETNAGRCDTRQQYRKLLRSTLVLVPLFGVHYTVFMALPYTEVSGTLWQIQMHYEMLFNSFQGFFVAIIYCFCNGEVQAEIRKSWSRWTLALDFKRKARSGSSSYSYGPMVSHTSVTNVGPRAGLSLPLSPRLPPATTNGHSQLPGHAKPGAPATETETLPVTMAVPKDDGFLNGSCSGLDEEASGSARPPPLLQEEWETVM
Description: Assays were conducted using […] cells. These assays were performed as described in Cohen et al. (1991), J. Biological Chem., 266(3), 1997 and in the Experimental section, e.g. Example 11. Receptor binding assays were carried out in canine renal plasma membranes and in UMR 106-H5 rat osteosarcoma cells as previously described in detail (Ref. 14,32), using ^125 I-labeled PTH(1-34)amide as the radioligand. Binding potency (IC50) was quantified as the concentration of unlabeled peptide required for half-maximal displacement of the radioligand. […] Adenylate cyclase activity was assessed in canine renal membranes by the conversion of [α-32p ] ATP to [^32 P] cyclic AMP, essentially as described, except for the addition of 100 micromolar GTP (Ref. 33,34). Adenylate cyclase activity in UMR 106-H5 cells was assessed essentially as described (Ref. 35). In brief, cells were incubated with [3H]adenine 1 micro Ci/ml of serum-free MEM for two hours at 37° C. to label the endogenous ATP pool. Cells were then exposed to 0.4 mM IBMX for 10 min, followed by the appropriate peptide for an additional 10 min at ambient temperature. The cells are then scraped in 20% TCA, and [3H]cyclic AMP is isolated by the column procedure of Salomon et al. (Ref. 36). Potency in the adenylate cyclase assays (Ka) is the concentration of peptide producing half-maximal enzyme activation.

[2] = system: PTH receptor; settings: for KIDNEY CELLS (CK) Activity (AC): Table 5A, intact cells, hPTH(1-34) = 100
[3] = molecular target: T2, PTH receptor (Homo sapiens, UniProt Q03431); assay type: cell-based; design: In intact rat (UMR-106) and human (SaOS-2) bone cell lines; endogenous in cells; host or cells: SaOS-2 human bone (osteosarcoma) cells; settings: intact human (SaOS-2) bone cell line
T2 sequence (Q03431 27-593): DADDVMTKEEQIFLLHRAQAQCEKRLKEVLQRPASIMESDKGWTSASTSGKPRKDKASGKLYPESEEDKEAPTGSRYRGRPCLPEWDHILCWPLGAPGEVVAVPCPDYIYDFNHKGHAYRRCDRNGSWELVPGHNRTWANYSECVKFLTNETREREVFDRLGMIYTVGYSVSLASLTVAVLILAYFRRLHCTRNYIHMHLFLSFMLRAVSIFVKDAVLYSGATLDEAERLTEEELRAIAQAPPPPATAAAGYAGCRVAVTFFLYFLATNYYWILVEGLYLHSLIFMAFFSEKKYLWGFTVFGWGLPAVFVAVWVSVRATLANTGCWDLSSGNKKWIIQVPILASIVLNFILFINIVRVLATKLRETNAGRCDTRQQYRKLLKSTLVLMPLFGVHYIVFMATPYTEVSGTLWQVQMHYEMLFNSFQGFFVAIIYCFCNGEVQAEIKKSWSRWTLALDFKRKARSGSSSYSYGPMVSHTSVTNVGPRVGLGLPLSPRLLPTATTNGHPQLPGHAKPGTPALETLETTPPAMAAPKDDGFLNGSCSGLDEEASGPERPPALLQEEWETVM
Source text: The renal membrane assay values listed reflect the effect of the polypeptide analogue with kidney tissue receptors. The UMR-106-H5 assay values reflect the effect of the peptide analogue with rat bone tissue receptors. The Sa05-2 assay values reflect the effect of the peptides for human bone tissue receptors.

[4] = aqueous conditions in the absence of amphiphiles (Ref. 37-39); cited from earlier work
[5] = Circular dichroism: alpha-helical content; assay type: physicochemical; settings: for % HELIX TFE (30%) / % HELIX TFE (0%): CD; for % HELIX TFE (30%): 30% trifluoroethanol; for % HELIX TFE (0%): absence of trifluoroethanol
Description: Far ultraviolet circular dichroism (CD) spectra were obtained in phosphate buffer (ph 7.0) at 25±1° C. in a 1.0 mm cell on an Instruments SA Jobin Yvon circular dichrograph calibrated with (+) 10-camphorsulfonic acid and epiandosterone. Peptides were analyzed at concentrations ranging from 0.1-0.3 mg/ml. The mean molar ellipticity per residue at 222 nm ([⊖]222 nm-, deg cm^2 /dmol) was used to derive estimates of alpha-helicity according to the method of Taylor and Kaiser (ref. 29).

[6] = molecular target: T3, PTH receptor (Canis lupus familiaris, UniProt Q9TU31); settings: background (Ref. 1); cited from earlier work
T3 construct: canine renal plasma membranes; from tissue; host or cells: canine kidney (renal plasma membranes)
T3 sequence (Q9TU31 29-595): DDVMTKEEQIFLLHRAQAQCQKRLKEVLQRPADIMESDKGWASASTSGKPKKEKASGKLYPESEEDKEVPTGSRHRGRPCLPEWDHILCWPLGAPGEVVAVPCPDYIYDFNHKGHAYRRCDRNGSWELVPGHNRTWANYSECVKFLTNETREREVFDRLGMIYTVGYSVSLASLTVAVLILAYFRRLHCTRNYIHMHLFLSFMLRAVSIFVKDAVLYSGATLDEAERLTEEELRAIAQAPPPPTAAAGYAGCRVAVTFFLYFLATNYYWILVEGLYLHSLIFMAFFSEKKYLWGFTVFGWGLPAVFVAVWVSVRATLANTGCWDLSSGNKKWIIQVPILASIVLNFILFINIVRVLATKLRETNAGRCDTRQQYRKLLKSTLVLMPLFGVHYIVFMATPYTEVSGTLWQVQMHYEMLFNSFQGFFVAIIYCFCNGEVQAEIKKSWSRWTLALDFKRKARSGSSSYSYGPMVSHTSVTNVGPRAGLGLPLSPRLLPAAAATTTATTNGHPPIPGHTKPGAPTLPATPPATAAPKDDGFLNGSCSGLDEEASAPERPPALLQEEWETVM

CC[C@H](C)[C@H](NC(=O)[C@H](CCC(=O)O)NC(=O)[C@H](Cc1c[nH]cn1)NC(=O)[C@@H](NC(=O)[C@@H](N)CO)C(C)C)C(=O)N[C@@H](CCC(N)=O)C(=O)N[C@@H](CC(C)C)C(=O)N[C@@H](CCSC)C(=O)N[C@@H](Cc1c[nH]cn1)C(=O)N[C@@H](CC(N)=O)C(=O)N[C@@H](CC(C)C)C(=O)NCC(=O)N[C@@H](CCCCN)C(=O)N[C@@H](Cc1c[nH]cn1)C(=O)N[C@@H](CC(C)C)C(=O)N[C@@H](CC(N)=O)C(=O)N[C@@H](CO)C(=O)N[C@@H](CCSC)C(=O)N[C@@H](CCC(=O)O)C(=O)N[C@@H](CCCNC(=N)N)C(=O)N[C@H](C(=O)N[C@@H](CCC(=O)O)C(=O)N[C@@H](Cc1c[nH]c2ccccc12)C(=O)N[C@@H](CC(C)C)C(=O)N[C@@H](CCCNC(=N)N)C(=O)N[C@@H](CCCCN)C(=O)N[C@@H](CCCCN)C(=O)N[C@@H](CC(C)C)C(=O)N[C@@H](CCC(N)=O)C(=O)N[C@@H](CC(=O)O)C(=O)N[C@H](C(=O)N[C@@H](Cc1c[nH]cn1)C(=O)N[C@@H](CC(N)=O)C(=O)N[C@@H](Cc1ccccc1)C(=O)O)C(C)C)C(C)C [[his^3]hPTH(1-34), [his^3]HPTH(1-34)]
agonism with respect to activation of adenylate cyclase [1]: full agonists | KIDNEY CELLS (CK) Activity (AC) [2]: 56% | activity of native-sequence HPTH(1-34) displayed ([2]; intact kidney (CK) cells): < 60% | agonism with respect to activation of adenylate cyclase [3]: full agonists

CC[C@H](C)[C@H](NC(=O)[C@H](CCC(=O)O)NC(=O)[C@H](CO)NC(=O)[C@@H](NC(=O)[C@H](C)N)C(C)C)C(=O)N[C@@H](CCC(N)=O)C(=O)N[C@@H](Cc1ccccc1)C(=O)N[C@@H](CCSC)C(=O)N[C@@H](Cc1c[nH]cn1)C(=O)N[C@@H](CC(N)=O)C(=O)N[C@@H](CC(C)C)C(=O)NCC(=O)N[C@@H](CCCCN)C(=O)N[C@@H](Cc1c[nH]cn1)C(=O)N[C@@H](CC(C)C)C(=O)N[C@@H](CO)C(=O)N[C@@H](CO)C(=O)N[C@@H](CCSC)C(=O)N[C@@H](CCC(=O)O)C(=O)N[C@@H](CCCNC(=N)N)C(=O)N[C@H](C(=O)N[C@@H](CCC(=O)O)C(=O)N[C@@H](Cc1c[nH]c2ccccc12)C(=O)N[C@@H](CC(C)C)C(=O)N[C@@H](CCCNC(=N)N)C(=O)N[C@@H](CCCCN)C(=O)N[C@@H](CCCCN)C(=O)N[C@@H](CC(C)C)C(=O)N[C@@H](CCC(N)=O)C(=O)N[C@@H](CC(=O)O)C(=O)N[C@H](C(=O)N[C@@H](Cc1c[nH]cn1)C(=O)N[C@@H](CC(N)=O)C(=O)N[C@@H](Cc1ccccc1)C(=O)O)C(C)C)C(C)C [bPTH (1-34), bPTH(1-34), reference compound]
alpha-helical residues, previous estimates [4]: less than 12 residues | residues contained within alpha-helical domains ([5]; 45% TFE): 25±3 residues | % HELIX TFE (30%) ([5]; Table 1): 91% | % HELIX TFE (0%) ([5]; Table 1): 35% | alpha-helical residues ([5]; absence of TFE): 7-10 residues | agonist activity, adenylate cyclase [6]: full agonist

CC[C@H](C)[C@H](NC(=O)[C@H](CCC(=O)O)NC(=O)[C@H](CO)NC(=O)[C@@H](NC(=O)[C@@H](N)CO)C(C)C)C(=O)N[C@@H](CCC(N)=O)C(=O)N[C@@H](CC(C)C)C(=O)N[C@@H](CCSC)C(=O)N[C@@H](Cc1c[nH]cn1)C(=O)N[C@@H](CC(N)=O)C(=O)N[C@@H](CC(C)C)C(=O)NCC(=O)N[C@@H](CCCCN)C(=O)N[C@@H](Cc1c[nH]cn1)C(=O)N[C@@H](CC(C)C)C(=O)N[C@@H](CC(N)=O)C(=O)N[C@@H](CO)C(=O)N[C@@H](CCSC)C(=O)N[C@@H](CCC(=O)O)C(=O)N[C@@H](CCCNC(=N)N)C(=O)N[C@H](C(=O)N[C@@H](CCC(=O)O)C(=O)N[C@@H](Cc1c[nH]c2ccccc12)C(=O)N[C@@H](CC(C)C)C(=O)N[C@@H](CCCNC(=N)N)C(=O)N[C@@H](CCCCN)C(=O)N[C@@H](CCCCN)C(=O)N[C@@H](CC(C)C)C(=O)N[C@@H](CCC(N)=O)C(=O)N[C@@H](CC(=O)O)C(=O)N[C@H](C(=O)N[C@@H](Cc1c[nH]cn1)C(=O)N[C@@H](CC(N)=O)C(=O)N[C@@H](Cc1ccccc1)C(=O)O)C(C)C)C(C)C [hPTH (1-34), hPTH(1-34), reference compound]
alpha-helical residues, previous estimates [4]: less than 12 residues | % HELIX TFE (30%) ([5]; Table 1(A)): 91% | % HELIX TFE (0%) ([5]; Table 1(A)): 35% | KIDNEY CELLS (CK) Activity (AC) [2]: 100%

AVSEIQFMHNLGKHLSSMERVEWLRKKLQDVHNY-NH2 [[Tyr^34]bPTH(1-34)amide]
alpha-helical residues ([5]; 30% TFE, second experiment): 24 residues
